In all, about 310,000 compounds went through this assay and about 2,200 (0.71%) showed an effect of 50% or more. The effect is printed as a negative number. This is one part of the list.
Biological target: human ether-à-go-go-related gene (hERG) potassium channel (human, UniProt Q12809)
Experiment: primary screen, population patch clamp on CHO cells stably expressing hERG

Sequence of human ether-à-go-go-related gene (hERG) potassium channel (Q12809 whole entry, looked up): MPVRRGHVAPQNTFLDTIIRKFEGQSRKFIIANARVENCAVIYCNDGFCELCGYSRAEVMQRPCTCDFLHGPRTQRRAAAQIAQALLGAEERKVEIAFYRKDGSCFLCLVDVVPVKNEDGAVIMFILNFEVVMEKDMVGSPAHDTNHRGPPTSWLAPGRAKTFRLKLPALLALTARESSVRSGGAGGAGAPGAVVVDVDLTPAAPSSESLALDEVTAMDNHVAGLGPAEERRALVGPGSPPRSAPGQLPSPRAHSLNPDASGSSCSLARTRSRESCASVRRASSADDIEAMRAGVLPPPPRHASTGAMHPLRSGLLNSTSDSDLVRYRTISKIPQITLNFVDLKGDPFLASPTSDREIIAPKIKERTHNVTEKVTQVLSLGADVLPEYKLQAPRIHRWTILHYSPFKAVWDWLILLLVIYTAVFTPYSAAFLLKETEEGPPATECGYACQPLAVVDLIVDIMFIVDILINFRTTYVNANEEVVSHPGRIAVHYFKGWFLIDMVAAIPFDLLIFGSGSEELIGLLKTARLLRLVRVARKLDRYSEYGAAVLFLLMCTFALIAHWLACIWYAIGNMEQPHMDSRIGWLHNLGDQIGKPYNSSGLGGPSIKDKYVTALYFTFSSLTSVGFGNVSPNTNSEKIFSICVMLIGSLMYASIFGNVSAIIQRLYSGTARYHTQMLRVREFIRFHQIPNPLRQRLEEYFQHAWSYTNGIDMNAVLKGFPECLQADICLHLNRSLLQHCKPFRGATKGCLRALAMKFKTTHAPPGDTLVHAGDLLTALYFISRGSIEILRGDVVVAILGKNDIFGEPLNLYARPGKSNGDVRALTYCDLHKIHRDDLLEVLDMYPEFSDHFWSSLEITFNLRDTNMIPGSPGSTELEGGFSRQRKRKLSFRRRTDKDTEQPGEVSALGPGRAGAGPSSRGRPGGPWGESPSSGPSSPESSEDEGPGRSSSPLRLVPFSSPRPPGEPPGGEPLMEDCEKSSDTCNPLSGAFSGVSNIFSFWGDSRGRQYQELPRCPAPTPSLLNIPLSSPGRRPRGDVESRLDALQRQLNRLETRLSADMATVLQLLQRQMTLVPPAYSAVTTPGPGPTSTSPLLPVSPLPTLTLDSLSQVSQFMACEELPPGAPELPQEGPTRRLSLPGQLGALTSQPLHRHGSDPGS

SMILES	hERG current change (%, negative = inhibition) at 1uM [%]
CC1(C)Cc2c(sc(NC(=O)Nc3ccccc3)c2C(N)=O)CO1	11.1
Cc1ccc(OCC(=O)NCCCNC(=O)c2ccco2)cc1C	7.48
CC(NC(=O)c1ccc(C(C)(C)C)cc1)C(c1cccs1)N1CCOCC1 (stereo not shown)	4.6
CC(C)c1nnc(NC(=O)CCC2CCCCC2)s1	16
Cc1nnc(NC(=O)CN2CCN(Cc3ccc(F)cc3Cl)CC2)s1	9.56
COc1cc2c(cc1O)CCN(C(=O)CSc1nncn1C)[C@@H]2C	10.7
CCN1CCN(C(=O)CCc2ccc(S(=O)(=O)NCCc3ccccc3)cc2)CC1	10.8
CC(=O)Nc1ccc(NC(=O)c2ccccc2N(C)S(=O)(=O)c2ccccc2)cc1	19.2
Cc1ccc(C(=O)CSC2=C(C#N)C(c3ccco3)C3=C(CCCC3=O)N2)cc1 (stereo not shown)	-5.42
COc1ccc2oc(C(=O)NN3C(C)CCCC3C)c(C)c2c1 (stereo not shown)	19
COc1ccccc1CNC(=S)Nc1ccc(F)cc1	13.1
Cc1ccc(NC(=O)CSc2nnc(-c3ccccn3)n2N)c(Br)c1	-6.61
Cc1ccc(S(=O)(=O)N2CCCCC2CCNC(=O)C(=O)NCc2cccnc2)cc1 (stereo not shown)	5.42
C/C(N)=N\S(=O)(=O)c1ccc(Cl)cc1	13
Cn1cc(C(=O)c2cccc(Cl)c2)cc1/C=N\O	3.57
COC(=O)c1onc(C(=O)c2ccccc2)c1C(=O)OC	10.8
COc1ccc(S(=O)(=O)N2CCc3ccccc32)cc1C(=O)OCc1c(C)noc1C	1.96
CCOc1ccccc1NC(=O)N1CCCC1C(=O)Nc1ccc(-n2cnnn2)c(C)c1 (stereo not shown)	-1.11
CCCCn1c(N)c(N(CC(C)C)C(=O)c2ccc(-c3ccc(C(C)=O)cc3)o2)c(=O)[nH]c1=O	10.8
CCn1c(CC(=O)Nc2ccc(F)cc2)nnc1SCC(=O)NC1=NCCS1	13.8
CC(=O)Nc1ccc(C(=O)OC2CCOC2=O)cc1 (stereo not shown)	10.5
O=C(CC1CS(=O)(=O)CC1CC(=O)Oc1ccccc1F)Oc1ccccc1F (stereo not shown)	12.3
COc1ccc(NC(=S)N2CCN(c3ccc([N+](=O)[O-])cc3)CC2)cc1OC	-82.2
COc1ccc(OCC(=O)Nc2nnc(S(=O)(=O)N3CCCCCC3)s2)cc1	18.1
CCOc1ccc2nc(NC(=O)c3c([N+](=O)[O-])cnn3CC)sc2c1	10.4

Source: paper PMC4336329 (PLoS ONE, 2015)
